The values that follow come from PMC12136788.

The other results are listed elsewhere or left out.

First the molecules themselves.
T1: UNK ZnF1-3 (human, UniProt Q9C0B0 31-174)
T1 sequence: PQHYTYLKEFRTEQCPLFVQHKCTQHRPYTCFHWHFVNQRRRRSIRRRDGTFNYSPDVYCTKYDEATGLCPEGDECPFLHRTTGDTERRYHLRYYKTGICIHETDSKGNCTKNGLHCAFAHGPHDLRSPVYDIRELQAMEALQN

B1: 133292388_133292508_1102_3pUTR_ENSG00000113583_ENST00000231512|human|control|control (ssRNA)
RNA: GGGAGUUCUACAGUCCGACGAUCAAAUUAUAUACUCGUUUGUGACAUUUAAUUUCCAAAGCACCAAGGCAAAAGAGAGACUCACCUCUCAUUUAAGUACCAAUUGCCUAUGGCAAACAUUUGCACAAUAUCAUAUAAAAAGUCCAACAGAGGAUUGAGCAUCA
B2: chr10:33190432:33190433:-_ENSG00000150093_ENST00000302278|hu_mus|hu_hu_hu_mus_True|68_108 (ssRNA)
RNA: GGGAGUUCUACAGUCCGACGAUCUACAUUUUCAAAACCUGCAUGUGAAUAAAACCCUGGCCACAGAGCCCUAAAGCUACCCUACUGUGACUAAGAUGCUGCUGCUGUGAGCUUGGUGUUGCAAAAUCCGCCUGAGUAGGAUUCCAACAGAGGAUUGAGCAUCA
B3: chr4:120981101:120981102:-_ENSG00000164109_ENST00000333047|hu_mus|FALSE|FALSE (ssRNA)
RNA: GGGAGUUCUACAGUCCGACGAUCAAUCUGUUGAUUCCCCUUAACAAUGUGCAGCACUCUUGUCGACUCAGACAAGUCCAGGAAGAACCCAAGAAAUGGAACAAUAACACACAUUUAUCAAUGUCGGAUCUUAGCUUUCUUCACCAACAGAGGAUUGAGCAUCA
B4: chr14:59854306:59854307:+_ENSMUSG00000035469_ENSMUST00000043227|mus_mus|FALSE|FALSE (ssRNA)
RNA: GGGAGUUCUACAGUCCGACGAUCUAAGAAAUGGACUCACAAGAAGCAAAUAUCCUUCAUAUAUUCCUACAGAGCACUGUCUAUGGUGUGGGGCUUUACCUGCAGAUCACCGCACCCACAGUGCCCCAGAGCUCUCACACCUAGCAACAGAGGAUUGAGCAUCA
B5: chr17:65740002:65740003:+_ENSG00000130935_ENST00000581375|hu_hu|hu_hu_hu_mus_False|38_108 (ssRNA)
RNA: GGGAGUUCUACAGUCCGACGAUCAACCCGUUCUUGCUCCCUGGACGAACAGGAAGAUUCAUAUUAAAAAAAAUAUAUAUCCAUCAAGUUAGGUGUGUAAUAUCAGACUUUACUCCCAGCACUUUGGGAGGUGGAUCUCUGAGUCAACAGAGGAUUGAGCAUCA
B6: chr14:57741442:57741443:+_ENSG00000053770_ENST00000261558|hu_mus|motif|central (ssRNA)
RNA: GGGAGUUCUACAGUCCGACGAUCAACUUUCCAGGCUGGCUGUUUUUGCGGCUGAGUCACAGAUACGGAAUUAAUGCGGUUCAGUGAAUUCUGCAAGUUAGCAUCCAAUAAAGUACCCAAAGGACAAGCCUGUAGAAGCAAGUCCAACAGAGGAUUGAGCAUCA
B7: chr9:14812383:14812384:-_ENSMUSG00000031934_ENSMUST00000164273|mus_mus|mus_mus_mus_hu_True|48_108 (ssRNA)
RNA: GGGAGUUCUACAGUCCGACGAUCAUAGCUCAAGUAGAUACACGCUAACAGUAUAAUGAUGAGUGUCAGCAGGCGGCAGCUAAUGUAUUUCAUGAUUAAAUUAUUAGAAUUUUUCUUUGUCUUCAAGUACUGCUCCACAAUUGGCAACAGAGGAUUGAGCAUCA
B8: chr7:17500836:17500837:-_ENSMUSG00000019370_ENSMUST00000019514|mus_hu|FALSE|FALSE (ssRNA)
RNA: GGGAGUUCUACAGUCCGACGAUCAUAUAUUUUUCUUCACAGCUUGAACUGAACACAAUAUUGCCCGGUUUAAAAAAAACAAAACCAAAACAUUCCGAAAAUGUCCACAGCCUCACGCCUACCUGCCCUUACCCUCAGCUCUUGCAACAGAGGAUUGAGCAUCA
B9: chr1:225611761:225611762:-_ENSG00000143815_ENST00000272163|hu_mus|hu_hu_hu_mus_True|8_18 (ssRNA)
RNA: GGGAGUUCUACAGUCCGACGAUCCCAGGCCAUCGGCCUCUGACCACUUCACCCUCAACAAACUUCCUACUUGGCAUUUUCUAAAAUUAGUCUGGCCGCGCUCCGGCGGGAACUCCAGACGGCUCCCGGAGAAUAGUAGCAGCCCAACAGAGGAUUGAGCAUCA
B10: chr1:220276048:220276049:+_ENSG00000067704_ENST00000302637|hu_hu|hu_hu_hu_mus_True|88_88 (ssRNA)
RNA: GGGAGUUCUACAGUCCGACGAUCGCAAAUUGCCUGGUUGGCGGGAAUCGUCCAAGGCUGGGUGGUCCAAACUAAAACGCUAACAGGGGAUGAGGCAUCUGUAAGAGACUCCAACUUCGGAGGAGGUCUCAGGAGGGGGAAUCUCAACAGAGGAUUGAGCAUCA
B11: chr19:15271381:15271382:-_ENSG00000074181_ENST00000263388|hu_hu|FALSE|FALSE (ssRNA)
RNA: GGGAGUUCUACAGUCCGACGAUCACGCUGCAAGGCAAGGAUGCAGGAGGGUUGGUGGAAAGAGAAGAGGAUGAAAAAGACUAAAAGGAAGGAAGAGACAGAGAAAGAAAGGAGGCAGGACGGGGGUCUCUUUAGGCCCCCAAGCAACAGAGGAUUGAGCAUCA
B12: chr1:167345318:167345319:+_ENSG00000143190_ENST00000367866|hu_hu|FALSE|FALSE (ssRNA)
RNA: GGGAGUUCUACAGUCCGACGAUCCGUCUGUGAGAUGAUAAACUGCGCUGGCUGCAAAUUGGUGGUUGGAUGCACCAACACAAACUGUUGCAGGUUGAGAUUCUGCUGUUGAAGCUGUUGCAGUUGUUGAAGAUCCUGUGCGAUCAACAGAGGAUUGAGCAUCA
B13: 13149494_13149614_1529_3pUTR_ENSMUSG00000024423_ENSMUST00000025290|mouse|control|control (ssRNA)
RNA: GGGAGUUCUACAGUCCGACGAUCGAUGAAUACUCGGGUUUUCACGUAAACUAUCACUCCAUGAUGAAUACUAUGGAAGGAAGCGUGACUCACUUGUGAAAUCACAAGAGAAAGACUCCCCAAGACCUCCGUCUUCCAUGCGCCCAACAGAGGAUUGAGCAUCA
B14: chr2:172291668:172291669:+_ENSG00000115827_ENST00000375255|hu_hu|motif|central (ssRNA)
RNA: GGGAGUUCUACAGUCCGACGAUCAACACUGCUGACACAGCGCCGAUAAUUGUCAAAAUAUAUUCUUCCUCUCUCAUAGGCGGUAGGUGACCUGGAAUGAGUUGUCCAGACAUUCUUAAAUUUAGUACUUUCCUGGCACACCAGCAACAGAGGAUUGAGCAUCA
B15: chr4:99801976:99801977:-_ENSG00000151247_ENST00000280892|hu_mus|motif|central (ssRNA)
RNA: GGGAGUUCUACAGUCCGACGAUCCACAUCUGCGGGUUCUGGGGUGACGUAUACUGUAAUUCUUUGAUUGGGAUAGUGGACACACGGGCAAAAAUUGGGGGUGGGGGAGGAGAAUGAACACAGAAGUACAAGACAAAGGCGAAUCAACAGAGGAUUGAGCAUCA
B16: chr16:94664741:94664742:+_ENSMUSG00000040785_ENSMUST00000117648|mus_hu|mus_mus_mus_hu_False|38_98 (ssRNA)
RNA: GGGAGUUCUACAGUCCGACGAUCUGGUACUGAUCUUUGCAUUGGAUAUUCAGGAGAAAGGCUGGCCAAGGGUGUAUAUAUGCUGGUGUACUGGGGCAGGCUAGGUAACACGUUUAUGUAUGCUGGCGGUGUCUGGGUGAUAUCCAACAGAGGAUUGAGCAUCA
B17: chr10:121586235:121586236:+_ENSG00000198825_ENST00000369080|perfect_dup|FALSE|FALSE (ssRNA)
RNA: GGGAGUUCUACAGUCCGACGAUCGAGGUUGCCAAUAUUUACAUUGGAUUUGGUCUGCUUCACUUUUUGAUUUAGAGAUGAAAAUUUGCUCAUUAAAAAAUUCUUUCCCUGGGCCAAAGAACCUUGGUUUUGAGACCUGAUACCCAACAGAGGAUUGAGCAUCA
B18: chr14:76904430:76904431:+_ENSMUSG00000022010_ENSMUST00000022587|mus_mus|mus_mus_mus_hu_True|18_38 (ssRNA)
RNA: GGGAGUUCUACAGUCCGACGAUCUGCAGCCAAAAACACCCUCGUGGAAAAAAAGAGGGAACACCAGCAGCCUUGUAUAAGCUAGAUAAAAUCUUCUAGCUGUCUGCAGCCCAGGGAGUGAGAACGGACGGCAGCCCUAAUUUACAACAGAGGAUUGAGCAUCA
B19: 84185012_84186113_6023_CDS_ENSMUSG00000020532_ENSMUST00000020843|mouse|control|control (ssRNA)
RNA: GGGAGUUCUACAGUCCGACGAUCUGGGAACCAAACCUGGCCGGCCUGCUGGAUUAUCUUGGCUUCAGAAUCCAGGUUCGCAGGAUCAGCUGGGAUACUGAGUUCCACUGUUCGGGUUUCUACAGCAACUACUCCCACGGGUAUCAACAGAGGAUUGAGCAUCA
B20: chr11:63961690:63961691:+_ENSG00000168439_ENST00000305218|hu_mus|FALSE|FALSE (ssRNA)
RNA: GGGAGUUCUACAGUCCGACGAUCUUCAUGUUUUAAACCUUCUUCAUAGGUUCGUUUGGCUUCCUCAAACCGGUUUAGGAAUUCAAGGGCUGCUGCUUUUCUUGAAUAACCCUUGCCCCAGUCAGGCUUCAGGUCAACAGUCUUCAACAGAGGAUUGAGCAUCA
B21: chr11:134117265:134117266:+_ENSG00000151502_ENST00000281187|hu_hu|FALSE|FALSE (ssRNA)
RNA: GGGAGUUCUACAGUCCGACGAUCGUUGGAAAAUGAACGUGUGUUGUCAGUUGGGAGGCAAAGGAAUUGACAAAUGCUUCUAGUUAGAAUAUCAGCUAGGAAAAGGAGGGAUACAGAGCCUGACCUCAUGCUCUGAAAAGGCAACAACAGAGGAUUGAGCAUCA
B22: chr2:37230337:37230338:-_ENSMUSG00000075376_ENSMUST00000100143|mus_hu|motif|central (ssRNA)
RNA: GGGAGUUCUACAGUCCGACGAUCAGAAAUAAAUAAGUUAACUAAGUCUACUUUCACUAGAUGUAUCAUUGUAGGAUCCUGCGGGUUUAAUAACUGAGUUGUUAAUUUUCUAUAGAAGCCAUUUAAAAUAGGAAAUGGCUCAGUCAACAGAGGAUUGAGCAUCA

The target in the assay is T1, UNK ZnF1-3. The assay is described as follows: nsRBNS (natural sequence RNA bind-n-seq); RBNS binding buffer (assumed for nsRBNS): 25 mM Tris pH 7.5, 150 mM KCl, 3 mM MgCl2, 0.01% Triton X-100, 500 ug/ml BSA, 20 U/ml SUPERase-In, 4 C; UNK is unkempt and MSI1 is Musashi-1; names of the RNAs are library labels; protein concentration not given here; high values mean tight binding.
In the case of B1, the binding signal was 0.935 enrichment R.

B2 had a binding signal of 1.07 enrichment R.

For B3, the binding signal amounted to 1.38 enrichment R.

Regarding B4, the binding signal was 0.698 enrichment R.

Regarding B5, the binding signal came out at 1.09 enrichment R.

For the molecule B6, the binding signal is 1.05 enrichment R.

Regarding B7, the binding signal stood at 2.32 enrichment R.

B8: the binding signal came to 1.55 enrichment R.

In turn, B9 showed a binding signal of 1.27 enrichment R.

Regarding B10, the binding signal turned out to be 1.25 enrichment R.

Turning to B11, the binding signal worked out at 2.27 enrichment R.

Molecule B12 registered a binding signal of 0.75 enrichment R.

On to B13, for which the binding signal was 0.895 enrichment R.

As for B14, the binding signal turned out to be 1.4 enrichment R.

Regarding B15, the binding signal came out at 2.17 enrichment R.

B16 showed a binding signal of 1.23 enrichment R.

In the case of B17, the binding signal stood at 1.42 enrichment R.

The molecule B18 had a binding signal of 2.49 enrichment R.

Consider B19, for which the binding signal came to 0.538 enrichment R.

B20 yielded a binding signal of 0.607 enrichment R.

Molecule B21 displayed a binding signal of 1.17 enrichment R.

B22 came in with a binding signal of 1.25 enrichment R.
